The supplement of paper PMC4967469

Columns and labels:
Assay in all cases: Viability of human cancer cell lines after 72 h of drug (GDSC screen)
17-AAG = compound: C=CCNC1=C2C[C@@H](C)C[C@H](OC)[C@H](O)[C@@H](C)/C=C(\C)[C@H](OC(N)=O)[C@@H](OC)/C=C\C=C(/C)C(=O)NC(=CC1=O)C2=O [17-AAG]; conditions: top dose 1 µM
Protocol: (§1)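 Human cancer cell lines in 384-well plates, medium with 10% serum, drug for 72 h over a 256-fold dose range (nine 2-fold or five 4-fold steps up to the top dose). Adherent lines were fixed and stained with the nucleic acid dye Syto60, suspension lines read with resazurin; signal relative to control wells, capped at 0 and 100%. One two-parameter sigmoid per drug and line, fitted in a mixed model over all curves with the slope shared within a line.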

OSI-027 = compound: COc1cccc2cc(-c3nc([C@H]4CC[C@H](C(=O)O)CC4)n4ncnc(N)c34)[nH]c12 [OSI-027]; conditions: top dose 20 µM
Protocol: as §1

CCT018159 = compound: CCc1cc(-c2n[nH]c(C)c2-c2ccc3c(c2)OCCO3)c(O)cc1O [CCT018159]; conditions: top dose 10 µM; top dose inferred
Protocol: as §1

TG101348 = compound: Cc1cnc(Nc2ccc(OCCN3CCCC3)cc2)nc1Nc1cccc(S(=O)(=O)NC(C)(C)C)c1 [TG101348]; conditions: top dose 10.24 µM
Protocol: as §1

Dimethyloxalylglycine = compound: COC(=O)CNC(=O)C(=O)OC [Dimethyloxalylglycine]; conditions: top dose 4000 µM; top dose inferred
Protocol: as §1

BIX02189 = compound: CN(C)Cc1cccc(N=C(c2ccccc2)c2c(O)[nH]c3cc(C(=O)N(C)C)ccc23)c1 [BIX02189]; conditions: top dose 20 µM; top dose inferred
Protocol: as §1

UNC1215 = compound: O=C(c1ccc(C(=O)N2CCC(N3CCCC3)CC2)c(Nc2ccccc2)c1)N1CCC(N2CCCC2)CC1 [UNC1215]; conditions: top dose 1 µM; top dose inferred
Protocol: as §1

VX-11e = compound: Cc1cnc(Nc2ccc(F)cc2Cl)nc1-c1c[nH]c(C(=O)N[C@H](CO)c2cccc(Cl)c2)c1 [VX-11e]; conditions: top dose 5.12 µM; top dose inferred
Protocol: as §1

Vismodegib = compound: CS(=O)(=O)c1ccc(C(=O)Nc2ccc(Cl)c(-c3ccccn3)c2)c(Cl)c1 [Vismodegib]; conditions: top dose 10 µM; top dose inferred
Protocol: as §1

Cell Line	AUC (17-AAG)	pIC50 (17-AAG)	AUC (OSI-027)	pIC50 (OSI-027)	AUC (CCT018159)	pIC50 (CCT018159)	AUC (TG101348)	pIC50 (TG101348)	AUC (Dimethyloxalylglycine)	pIC50 (Dimethyloxalylglycine)	AUC (BIX02189)	pIC50 (BIX02189)	AUC (UNC1215)	pIC50 (UNC1215)	AUC (VX-11e)	pIC50 (VX-11e)	AUC (Vismodegib)	pIC50 (Vismodegib)
786-0 (kidney, adherent)	0.617	6.90	0.271	6.53	0.766	5.47	0.675	5.72	0.902	< 2.40	0.896	< 4.70	0.986	< 6.00				
A431 (skin, adherent)	0.561	7.04	0.231	6.67	0.93	< 5.00	0.877	5.02	0.379	3.93	0.947	< 4.70	0.987	< 6.00	0.876	5.33		
ACHN (kidney, adherent)			0.777	5.03	0.878	< 5.00	0.789	5.28	0.529	3.52	0.873	< 4.70	0.977	< 6.00	0.944	< 5.29	0.963	< 5.00
BALL-1 (B-cell leukaemia, suspension)	0.993	< 6.00			0.979	< 5.00							0.997	< 6.00			0.991	< 5.00
BT-549 (breast, adherent)	0.623	6.81			0.884	< 5.00							0.975	< 6.00			0.979	< 5.00
BxPC-3 (pancreas, adherent)	0.639		0.791	4.99	0.981	< 5.00	0.917	< 4.99	0.626	3.24	0.92	< 4.70	0.982	< 6.00	0.901	< 5.29		
CAKI-1 (kidney, adherent)			0.366	6.35	0.922	< 5.00	0.748	5.32	0.52	3.54	0.917	< 4.70	0.966	< 6.00	0.952	< 5.29	0.953	< 5.00
CCRF-CEM (lymphoblastic leukaemia, suspension)			0.197	6.71	0.792	5.43	0.737	5.58	0.207	4.38	0.847	4.95	0.984	< 6.00	0.927	< 5.29	0.91	< 5.00
CHP-134 (neuroblastoma, suspension)	0.894	< 6.00	0.551	5.75			0.827	5.06			0.928	< 4.70			0.979	< 5.29		
CL-40 (large intestine, adherent)	0.638	6.71			0.97	< 5.00							0.951	< 6.00			0.966	< 5.00
COLO-205 (large intestine, suspension)	0.425	7.41	0.663	5.45	0.985	< 5.00	0.829	5.20	0.878	2.40	0.95	< 4.70	0.98	< 6.00	0.675	6.01		
ChaGo-K-1 (non-small cell lung carcinoma, adherent)	0.689	6.63	0.837	4.78	0.927	< 5.00	0.965	< 4.99	0.737	2.87	0.975	< 4.70	0.983	< 6.00	0.98	< 5.29		
HCC70 (breast, adherent)			0.752	5.19	0.949	< 5.00	0.917	< 4.99	0.57	3.41	0.884	< 4.70	0.984	< 6.00	0.921	< 5.29	0.949	< 5.00
HCC1806 (breast, adherent)	0.626	6.87	0.767	5.16	0.918	< 5.00	0.887	5.01	0.78	2.82	0.941	< 4.70	0.988	< 6.00	0.918	< 5.29		
HL-60 (acute myeloid leukaemia, suspension)			0.339	6.33	0.939	< 5.00			0.406	3.85	0.935	< 4.70	0.988	< 6.00			0.978	< 5.00
HOP-92 (large cell lung carcinoma, adherent)			0.981	< 4.70	0.945	< 5.00	0.985	< 4.99	0.696	3.01	0.98	< 4.70	0.964	< 6.00	0.979	< 5.29	0.983	< 5.00

pIC50: −log10 of the molar value. A lower IC50 marks a more sensitive line; a limit (>, <) means that the fit lies beyond the doses tested. The AUC spans the tested range (256-fold, ending at the top dose) of the same fit; it is 1 without any effect and falls as sensitivity rises. For part of these data: The top dose, if marked as inferred, comes from the curve model; the source does not state it.
